Measurements as given in the supplement of paper PMC8728848.
This is one part of the list.

Legend:
Test in all cases: glycan array binding signal (z-score within array); higher = stronger binding
Details in all cases: glycan notation: IUPAC condensed, linker removed
[1] = molecular target: Fuc(a1-2)Gal
Method in brief: (§1)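 Arrays were curated from the Consortium for Functional Glycomics database, 3228 in total, and kept only where the protein sequence was available. Binding is expressed as a within-array Z-score. This score was averaged across arrays of the same protein sequence at different concentrations or buffers and across linkers, and negative values can be read as non-binding.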

[2] = molecular target: Fuc(a1-2)Gal(b1-3)GalNAc
Method in brief: as §1

[3] = molecular target: Fuc(a1-2)Gal(b1-3)GalNAc(a1-3)[Fuc(a1-2)]Gal(b1-4)Glc
Method in brief: as §1

[4] = molecular target: Fuc(a1-2)Gal(b1-3)GalNAc(a1-3)[Fuc(a1-2)]Gal(b1-4)GlcNAc
Method in brief: as §1

[5] = molecular target: Fuc(a1-2)Gal(b1-3)GalNAc(b1-3)Gal
Method in brief: as §1

[6] = molecular target: Fuc(a1-2)Gal(b1-3)GalNAc(b1-3)Gal(a1-4)Gal(b1-4)Glc
Method in brief: as §1

[7] = molecular target: Fuc(a1-2)Gal(b1-3)GalNAc(b1-4)[Neu5Ac(a2-3)]Gal(b1-4)Glc
Method in brief: as §1

[8] = molecular target: Fuc(a1-2)Gal(b1-3)GlcNAc
Method in brief: as §1

[9] = molecular target: Fuc(a1-2)Gal(b1-3)GlcNAc(b1-2)Man(a1-3)[Fuc(a1-2)Gal(b1-3)GlcNAc(b1-2)Man(a1-6)]Man(b1-4)GlcNAc(b1-4)GlcNAc
Method in brief: as §1

[10] = molecular target: Fuc(a1-2)Gal(b1-3)GlcNAc(b1-2)Man(a1-3)[Fuc(a1-2)Gal(b1-3)GlcNAc(b1-2)Man(a1-6)]Man(b1-4)GlcNAc(b1-4)[Fuc(a1-6)]GlcNAc
Method in brief: as §1

[11] = molecular target: Fuc(a1-2)Gal(b1-3)GlcNAc(b1-3)Gal(b1-4)Glc
Method in brief: as §1

[12] = molecular target: Fuc(a1-2)Gal(b1-3)GlcNAc(b1-3)GalNAc
Method in brief: as §1

[13] = molecular target: Fuc(a1-2)Gal(b1-3)GlcNAc(b1-3)[Fuc(a1-2)Gal(b1-3)GlcNAc(b1-6)]GalNAc
Method in brief: as §1

[14] = molecular target: Fuc(a1-2)Gal(b1-3)GlcNAc(b1-3)[Gal(b1-4)GlcNAc(b1-6)]Gal(b1-4)Glc
Method in brief: as §1

[15] = molecular target: Fuc(a1-2)Gal(b1-3)GlcNAc(b1-3)[Neu5Ac(a2-6)Gal(b1-4)GlcNAc(b1-6)]Gal(b1-4)Glc
Method in brief: as §1

[16] = molecular target: Fuc(a1-2)Gal(b1-3)GlcNAc6S
Method in brief: as §1

[17] = molecular target: Fuc(a1-2)Gal(b1-3)[Fuc(a1-4)]GlcNAc
Method in brief: as §1

[18] = molecular target: Fuc(a1-2)Gal(b1-3)[Fuc(a1-4)]GlcNAc(b1-2)Man(a1-3)[Fuc(a1-2)Gal(b1-3)[Fuc(a1-4)]GlcNAc(b1-2)Man(a1-3)]Man(b1-4)GlcNAc(b1-4)GlcNAc
Method in brief: as §1

[19] = molecular target: Fuc(a1-2)Gal(b1-3)[Fuc(a1-4)]GlcNAc(b1-2)Man(a1-3)[Fuc(a1-2)Gal(b1-3)[Fuc(a1-4)]GlcNAc(b1-2)Man(a1-6)]Man(b1-4)GlcNAc(b1-4)[Fuc(a1-6)]GlcNAc(b1-4)[Fuc(a1-6)]GlcNAc
Method in brief: as §1

[20] = molecular target: Fuc(a1-2)Gal(b1-3)[Fuc(a1-4)]GlcNAc(b1-3)[Fuc(a1-3)[Gal(b1-4)]GlcNAc(b1-6)]Gal(b1-4)Glc
Method in brief: as §1

[21] = molecular target: Fuc(a1-2)Gal(b1-3)[Fuc(a1-4)]GlcNAc(b1-3)[Gal(b1-4)GlcNAc(b1-6)]Gal(b1-4)Glc
Method in brief: as §1

[22] = molecular target: Fuc(a1-2)Gal(b1-4)Glc
Method in brief: as §1

[23] = molecular target: Fuc(a1-2)Gal(b1-4)Glc6S
Method in brief: as §1

[24] = molecular target: Fuc(a1-2)Gal(b1-4)GlcNAc
Method in brief: as §1

[25] = molecular target: Fuc(a1-2)Gal(b1-4)GlcNAc(b1-2)Man
Method in brief: as §1

[26] = molecular target: Fuc(a1-2)Gal(b1-4)GlcNAc(b1-2)Man(a1-3)[Fuc(a1-2)Gal(b1-4)GlcNAc(b1-2)Man(a1-6)]Man(b1-4)GlcNAc(b1-4)GlcNAc
Method in brief: as §1

[27] = molecular target: Fuc(a1-2)Gal(b1-4)GlcNAc(b1-2)Man(a1-3)[Fuc(a1-2)Gal(b1-4)GlcNAc(b1-2)Man(a1-6)]Man(b1-4)GlcNAc(b1-4)[Fuc(a1-6)]GlcNAc
Method in brief: as §1

[28] = molecular target: Fuc(a1-2)Gal(b1-4)GlcNAc(b1-2)[Fuc(a1-2)Gal(b1-4)GlcNAc(b1-4)]Man(a1-3)[Fuc(a1-2)Gal(b1-4)GlcNAc(b1-2)Man(a1-6)]Man(b1-4)GlcNAc(b1-4)GlcNAc
Method in brief: as §1

[29] = molecular target: Fuc(a1-2)Gal(b1-4)GlcNAc(b1-3)Gal(b1-4)GlcNAc
Method in brief: as §1

[30] = molecular target: Fuc(a1-2)Gal(b1-4)GlcNAc(b1-3)Gal(b1-4)GlcNAc(b1-2)Man(a1-3)[Fuc(a1-2)Gal(b1-4)GlcNAc(b1-3)Gal(b1-4)GlcNAc(b1-2)Man(a1-6)]Man(b1-4)GlcNAc(b1-4)GlcNAc
Method in brief: as §1

[31] = molecular target: Fuc(a1-2)Gal(b1-4)GlcNAc(b1-3)Gal(b1-4)GlcNAc(b1-3)Gal(b1-4)GlcNAc
Method in brief: as §1

[32] = molecular target: Fuc(a1-2)Gal(b1-4)GlcNAc(b1-3)GalNAc
Method in brief: as §1

[33] = molecular target: Fuc(a1-2)Gal(b1-4)GlcNAc(b1-3)[Fuc(a1-2)Gal(b1-4)GlcNAc(b1-6)]GalNAc
Method in brief: as §1

[34] = molecular target: Fuc(a1-2)Gal(b1-4)GlcNAc(b1-3)[Fuc(a1-3)[Gal(b1-4)]GlcNAc(b1-6)]Gal(b1-4)Glc
Method in brief: as §1

[35] = molecular target: Fuc(a1-2)Gal(b1-4)GlcNAc(b1-6)GalNAc
Method in brief: as §1

[36] = molecular target: Fuc(a1-2)Gal(b1-4)GlcNAc6S
Method in brief: as §1

[37] = molecular target: Fuc(a1-2)Gal(b1-4)[Fuc(a1-3)]GlcNAc
Method in brief: as §1

B1: Mg3lysM (Mycosphaerella graminicola) (protein)
chain: APQNPPTSCSAAPQPTGTGSPGTVCGSTTFTNYTVKAGDTLGAIAKQYNSGVCDIAKVNGIDNPDYIKPDQVLSIPANCVTPDNTSCVKPVPVITNTCVLGVGSTYTVKSGDSFSAIATSFNITLASLEARNPQIPNYDLIFPGQVINTPLCPNSVCDSIGTYVIESGDIFYNLAQSNNVTVGQLESLNVNVNVTDIHPGDIIILPHNCHNITASA
glycan array binding signal (z-score) [1]: -0.076 | glycan array binding signal (z-score) [2]: -0.076 | glycan array binding signal (z-score) [3]: -0.085 | glycan array binding signal (z-score) [4]: -0.062 | glycan array binding signal (z-score) [5]: -0.051 | glycan array binding signal (z-score) [6]: -0.196 | glycan array binding signal (z-score) [7]: -0.064 | glycan array binding signal (z-score) [8]: -0.055 | glycan array binding signal (z-score) [9]: 0.043 | glycan array binding signal (z-score) [10]: -0.039 | glycan array binding signal (z-score) [11]: -0.042 | glycan array binding signal (z-score) [12]: -0.131 | glycan array binding signal (z-score) [13]: 0.259 | glycan array binding signal (z-score) [14]: -0.176 | glycan array binding signal (z-score) [15]: -0.182 | glycan array binding signal (z-score) [16]: -0.052 | glycan array binding signal (z-score) [17]: -0.115 | glycan array binding signal (z-score) [18]: -0.041 | glycan array binding signal (z-score) [19]: -0.09 | glycan array binding signal (z-score) [20]: -0.105 | glycan array binding signal (z-score) [21]: -0.061 | glycan array binding signal (z-score) [22]: -0.028 | glycan array binding signal (z-score) [23]: -0.071 | glycan array binding signal (z-score) [24]: -0.021 | glycan array binding signal (z-score) [25]: -0.045 | glycan array binding signal (z-score) [26]: -0.083 | glycan array binding signal (z-score) [27]: -0.055 | glycan array binding signal (z-score) [28]: -0.001 | glycan array binding signal (z-score) [29]: -0.047 | glycan array binding signal (z-score) [30]: -0.028 | glycan array binding signal (z-score) [31]: -0.034 | glycan array binding signal (z-score) [32]: -0.07 | glycan array binding signal (z-score) [33]: -0.151 | glycan array binding signal (z-score) [34]: -0.038 | glycan array binding signal (z-score) [35]: -0.086 | glycan array binding signal (z-score) [36]: -0.05 | glycan array binding signal (z-score) [37]: -0.109
